# Source: publication PMC6310259
# No constants are given. Whether binding was seen depends on the method and setting. For some of these results: Binding seen in cells or lysates may run through a third protein. Some results given as binding are weak or reduced against the parent protein; the word gives no strength. Tags and fused reporters may be left off the sequences shown.
# T1: NPR1, BiFC fusion (Arabidopsis thaliana), P93002
# T1 chain: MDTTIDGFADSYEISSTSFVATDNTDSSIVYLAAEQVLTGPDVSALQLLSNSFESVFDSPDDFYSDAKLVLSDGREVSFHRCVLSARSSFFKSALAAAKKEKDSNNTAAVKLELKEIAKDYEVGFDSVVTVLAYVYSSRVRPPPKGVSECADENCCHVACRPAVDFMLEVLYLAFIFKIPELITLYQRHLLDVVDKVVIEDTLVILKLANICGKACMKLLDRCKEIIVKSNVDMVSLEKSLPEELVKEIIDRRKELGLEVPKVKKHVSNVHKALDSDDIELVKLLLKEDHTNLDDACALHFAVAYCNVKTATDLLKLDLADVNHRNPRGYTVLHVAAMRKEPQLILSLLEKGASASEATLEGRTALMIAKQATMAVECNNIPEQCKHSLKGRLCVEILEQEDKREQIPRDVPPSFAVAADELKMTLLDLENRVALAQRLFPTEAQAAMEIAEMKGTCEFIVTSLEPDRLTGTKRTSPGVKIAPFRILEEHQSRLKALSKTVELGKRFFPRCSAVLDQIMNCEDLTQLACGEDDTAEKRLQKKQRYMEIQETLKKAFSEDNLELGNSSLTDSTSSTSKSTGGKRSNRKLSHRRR
# T2: BOP1, BiFC fusion (Arabidopsis thaliana) (UniProt Q9M1I7)
# T2 sequence: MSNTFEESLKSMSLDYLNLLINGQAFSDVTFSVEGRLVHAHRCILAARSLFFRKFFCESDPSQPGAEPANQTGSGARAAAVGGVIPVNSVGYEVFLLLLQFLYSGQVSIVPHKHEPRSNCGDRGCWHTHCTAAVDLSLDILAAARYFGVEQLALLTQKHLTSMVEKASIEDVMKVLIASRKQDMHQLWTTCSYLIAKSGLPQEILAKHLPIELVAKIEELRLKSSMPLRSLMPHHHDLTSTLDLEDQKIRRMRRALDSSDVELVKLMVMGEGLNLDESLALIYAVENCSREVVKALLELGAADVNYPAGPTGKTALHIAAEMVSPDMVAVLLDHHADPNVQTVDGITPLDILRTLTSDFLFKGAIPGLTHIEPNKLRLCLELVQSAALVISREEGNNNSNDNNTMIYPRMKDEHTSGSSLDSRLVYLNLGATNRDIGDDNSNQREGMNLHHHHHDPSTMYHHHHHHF
# T3: BOP2, BiFC fusion (Arabidopsis thaliana) (UniProt Q9ZVC2)
# T3 sequence: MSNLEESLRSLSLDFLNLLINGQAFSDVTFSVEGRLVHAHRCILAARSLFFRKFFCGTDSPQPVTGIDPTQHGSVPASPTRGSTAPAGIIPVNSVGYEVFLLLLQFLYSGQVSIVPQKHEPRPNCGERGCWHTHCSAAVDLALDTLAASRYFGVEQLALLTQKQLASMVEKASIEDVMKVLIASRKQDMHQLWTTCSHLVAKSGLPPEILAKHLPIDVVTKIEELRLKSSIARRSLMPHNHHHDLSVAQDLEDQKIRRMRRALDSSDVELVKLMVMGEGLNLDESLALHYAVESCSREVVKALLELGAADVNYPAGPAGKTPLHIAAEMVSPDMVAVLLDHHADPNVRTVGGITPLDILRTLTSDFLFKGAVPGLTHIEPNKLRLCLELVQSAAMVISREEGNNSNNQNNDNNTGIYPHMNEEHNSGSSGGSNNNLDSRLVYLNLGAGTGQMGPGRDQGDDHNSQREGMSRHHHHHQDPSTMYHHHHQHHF
# T4: NPR2, BiFC fusion (Arabidopsis thaliana) (UniProt Q9SZI3)
# T4 sequence: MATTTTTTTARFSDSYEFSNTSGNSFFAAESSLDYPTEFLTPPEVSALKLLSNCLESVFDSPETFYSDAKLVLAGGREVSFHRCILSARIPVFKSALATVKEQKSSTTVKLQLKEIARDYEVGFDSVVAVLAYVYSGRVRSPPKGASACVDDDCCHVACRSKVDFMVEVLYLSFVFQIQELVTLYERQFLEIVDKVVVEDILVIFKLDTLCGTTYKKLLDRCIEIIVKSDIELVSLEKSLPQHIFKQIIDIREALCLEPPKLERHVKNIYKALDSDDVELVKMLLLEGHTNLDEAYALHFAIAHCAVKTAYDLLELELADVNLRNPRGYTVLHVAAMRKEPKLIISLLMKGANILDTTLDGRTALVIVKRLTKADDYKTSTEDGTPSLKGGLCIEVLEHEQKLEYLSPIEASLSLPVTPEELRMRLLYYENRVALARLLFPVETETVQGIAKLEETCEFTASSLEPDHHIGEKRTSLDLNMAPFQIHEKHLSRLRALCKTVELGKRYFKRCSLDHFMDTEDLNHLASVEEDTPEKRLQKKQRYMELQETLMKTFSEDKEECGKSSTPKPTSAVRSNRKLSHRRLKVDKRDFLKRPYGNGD
# T5: NPR2, yeast two-hybrid fusion (Arabidopsis thaliana) (UniProt Q9SZI3)
# T5 sequence: T4 sequence
# B1: NPR1, BiFC fusion, P93002 1-593 (protein)
# chain: T1 chain
# B2: NPR2, BiFC fusion (protein, UniProt Q9SZI3 1-600)
# chain: T4 sequence
# B3: GFP-NPR2 (protein, UniProt Q9SZI3 1-600)
# chain: T4 sequence
# B4: NPR2, yeast two-hybrid fusion (protein, UniProt Q9SZI3 1-600)
# chain: T4 sequence
# B5: NIMIN1 (NIM1-… 1), yeast two-hybrid fusion (protein, UniProt Q9FNZ5 1-142)
# chain: MYPKQFSLYNYSLETMSKDENVESKETIRVDKRVREDEEEEEEKKIDTFFKLIKHYQEARKRRREELAENSGVVRRKSNGGERSGIVVPAFQPEDFSQCRTGLKPPLMFVSDHKEENTKVEQEEDQTEERNEDKALDLNLAL
# B6: β carbonic anhydrase 2 (CA2), yeast two-hybrid fusion (protein, UniProt P42737 1-331)
# chain: MVPFWTTVSRNGSSDSETTLQSASKATKQYKYPSLRPSHRLSLLFLFPFHLSANGACFRCTCFSHFKLELRRMGNESYEDAIEALKKLLIEKDDLKDVAAAKVKKITAELQAASSSDSKSFDPVERIKEGFVTFKKEKYETNPALYGELAKGQSPKYMVFACSDSRVCPSHVLDFHPGDAFVVRNIANMVPPFDKVKYAGVGAAIEYAVLHLKVENIVVIGHSACGGIKGLMSFPLDGNNSTDFIEDWVKICLPAKSKVLAESESSAFEDQCGRCEREAVNVSLANLLTYPFVREGVVKGTLALKGGYYDFVNGSFELWELQFGISPVHSI
# Legend:
# [1] = target: T1, NPR1, BiFC fusion (Arabidopsis …); assay: split reporter; BiFC in N. benthamiana leaves, agroinfiltrated; 1 mM SA one day before visualization; first protein fused with the N-terminal part of GFP, second with the C-terminal; confocal microscopy; conditions: remark: other sources report otherwise
# [2] = target: T2, BOP1, BiFC fusion (Arabidopsis thaliana); assay: as above
# [3] = target: T3, BOP2, BiFC fusion (Arabidopsis thaliana); assay: as above
# [4] = target: NPR1, BiFC fusion (Arabidopsis thaliana) (UniProt P93002); assay: as above
# [5] = target: T4, NPR2, BiFC fusion (Arabidopsis thaliana); assay: as above
# [6] = target: GFP-NPR2 (Arabidopsis thaliana) (UniProt Q9SZI3); assay: pull-down; GFP-NPR2 and MBP-fused paralogs transiently expressed in N. benthamiana; extracts pulled down with amylose resin; GFP-NPR2 detected in the eluted fraction by immunoblot (the paper's 'co-sedimentation')
# [7] = target: MBP-NPR1 (Arabidopsis thaliana) (UniProt P93002); assay: as above
# [8] = substrate: NON EXPRESSER OF PATHOGENESIS RELATED 1 (NPR1), yeast two-hybrid fusion (Arabidopsis thaliana) (UniProt P93002); assay: two-hybrid; NPR1 paralogs against each other (Fig 5); growth on -His, 5 mM or less 3AT when indicated; result told for plates with and without SA alike, or without naming the plate
# [9] = target: T5, NPR2, yeast two-hybrid fusion (Arabidopsis thaliana); assay: two-hybrid; yeast with one cDNA in pDEST22 and one in pDEST32; growth on minimal media -His with 5 mM 3AT and 100 μM SA or 100 μM HBA (Fig 4a)
# [10] = target: T5, NPR2, yeast two-hybrid fusion (Arabidopsis thaliana); assay: two-hybrid; yeast with one cDNA in pDEST22 and one in pDEST32; growth on -His with 100 μM SA or 100 μM HBA, without 3AT (Fig 4b)
binder,measurement,setting,value
B1,binding,[1],binds
B2,binding,[2],binds
same,binding,[3],binds
same,binding,[4],binds
same,binding,[5],binds
B3,binding,[6],binds
same,binding,[7],binds
B4,binding,[8],binds
B5,binding,[9],no binding
B6,binding,[10],no binding
